Our source for the cytotoxicity call and growth inhibition call values is the antibiotic and cytotoxicity screens of Wong et al. (2023).

Structures are written as SMILES. The list shows a part of the results.

Test [1] has as its system HSkMC (human skeletal muscle cells). Put plainly: cytotoxicity call (relative viability < 0.9). The note with it: 10 µM.
In test [2] the test system is HepG2. Put plainly: cytotoxicity call (relative viability < 0.9). The conditions noted are these: 10 µM.
The subject of test [3] is S. aureus RN4220. Briefly: growth inhibition call (relative growth <= 0.2). The note with it: 50 µM.

`C[C@H]1CN([C@@H](C)CO)C(=O)c2cc(NS(=O)(=O)c3cn(C)cn3)ccc2O[C@@H]1CN(C)S(=O)(=O)c1cn(C)cn1`: the cytotoxicity call in test [1] and in test [2] was “inactive” throughout. In addition, the growth inhibition call in test [3] was “inactive”.

`COCC(=O)N1C[C@H](C)[C@H](OC)CN(C)C(=O)c2cc(NC(=O)Nc3cccc(F)c3)ccc2OC[C@H]1C`: the cytotoxicity call in test [1] and in test [2] was “inactive” in each case. For the same compound, the growth inhibition call in test [3] was “inactive”.

`CCN(CC)CCS(=O)(=O)[C@@H]1CCN2C(=O)c3coc(n3)CC(=O)C[C@H](O)/C=C(C)/C=C\CNC(=O)/C=C/[C@@H](C)[C@H](C(C)C)OC(=O)[C@@H]12`: the cytotoxicity call in test [1] and in test [2] was “inactive” each time. For the same compound, the growth inhibition call in test [3] is “active”.

Take `C[C@H]1CN([C@@H](C)CO)C(=O)c2cc(NS(=O)(=O)c3cccs3)ccc2O[C@@H]1CN(C)Cc1ccc(Cl)c(Cl)c1`: the cytotoxicity call in test [1] and in test [2] was “inactive” in each case. In addition, the growth inhibition call in test [3] was “inactive”.

In the case of `Cc1ccc(S(=O)(=O)N(C)C[C@H]2Oc3ccc(NS(=O)(=O)c4ccccc4)cc3CC(=O)N([C@H](C)CO)C[C@@H]2C)cc1`, the cytotoxicity call in test [1] and in test [2] was “inactive” in each case. Besides, in test [3], the growth inhibition call is “inactive”.

`Cc1ccc(S(=O)(=O)N(C)C[C@@H]2Oc3ccc(NC(=O)CCN4CCOCC4)cc3CC(=O)N([C@H](C)CO)C[C@H]2C)cc1`: the cytotoxicity call in test [1] and in test [2] was “inactive” in each case. Besides, in test [3], the growth inhibition call was “inactive”.

As to `Cc1ccc(-c2noc([C@H](C)c3ccc(CC(C)C)cc3)n2)cc1`, the cytotoxicity call in test [1] and in test [2] was “inactive” throughout. For the same compound, the growth inhibition call in test [3] was “inactive”.

For `C=CCOC(=O)[C@H]1[C@@H]2C(=O)O[C@@H](c3ccccc3)[C@@H](c3ccccc3)N2[C@@H](c2ccc(OCCOC(=O)[C@@H]3C[C@@H]4C(=O)N[C@@H](Cc5ccccc5)C(=O)N4[C@@H]3c3ccc(O)cc3)cc2)[C@]12C(=O)Nc1ccccc12`, the cytotoxicity call in test [1] and in test [2] was “inactive” each time. For the same compound, in test [3], the growth inhibition call was “inactive”.

Regarding `C[C@@H]1CN([C@@H](C)CO)C(=O)c2cc(NC(=O)C3CCCCC3)ccc2O[C@@H](C)CCCCO[C@H]1CN(C)S(=O)(=O)c1ccccc1`, the cytotoxicity call in test [1] and in test [2] was “inactive” in each case. For the same compound, in test [3], the growth inhibition call was “inactive”.

Consider `Cc1ccc(S(=O)(=O)Nc2ccc3c(c2)CC(=O)N([C@H](C)CO)C[C@@H](C)[C@@H](CN(C)C(=O)Nc2cccc4ccccc24)O3)cc1`, for which the cytotoxicity call in test [1] and in test [2] was “inactive” in each case. Besides, the growth inhibition call in test [3] is “inactive”.

On to `CC1CCC(NC(=O)N(CCCl)N=O)CC1` (configuration not stated), for which the cytotoxicity call in test [1] and in test [2] was “inactive” each time. For the same compound, the growth inhibition call in test [3] was “inactive”.

In the case of `Cc1cccc(S(=O)(=O)N2C[C@@H](O)COC[C@H]3O[C@H](CC(=O)NCc4ccc5c(c4)OCO5)CC[C@@H]32)c1`, the cytotoxicity call in test [1] and in test [2] was “inactive” in each case. Further, the growth inhibition call in test [3] is “inactive”.

Take `C[C@H]1CCCCO[C@@H](CN(C)Cc2ccc(C(=O)O)cc2)[C@@H](C)CN([C@@H](C)CO)C(=O)c2cc(NC(=O)Nc3ccc(F)cc3)ccc2O1`: the cytotoxicity call in test [1] and in test [2] was “inactive” each time. Besides, the growth inhibition call in test [3] is “inactive”.

On to `COc1ccc(CN(C)C[C@H]2Oc3ccc(NC(=O)Nc4cccc5ccccc45)cc3CC(=O)N([C@@H](C)CO)C[C@@H]2C)cc1`, for which the cytotoxicity call in test [1] is “inactive”. Moreover, the cytotoxicity call in test [2] is “active”. In addition, the growth inhibition call in test [3] was “inactive”.

In the case of `C[C@@H]1CN([C@H](C)CO)C(=O)c2cc(NC(=O)Cc3ccccc3)ccc2O[C@H]1CN(C)Cc1ccc(Cl)c(Cl)c1`, the cytotoxicity call in test [1] and in test [2] was “inactive” each time. Also, the growth inhibition call in test [3] was “inactive”.

As to `C[C@@H]1CN([C@@H](C)CO)C(=O)c2cc(NC(=O)Nc3cccc4ccccc34)ccc2O[C@@H](C)CCCCO[C@@H]1CN(C)Cc1ccc2c(c1)OCO2`, the cytotoxicity call in test [1] and in test [2] was “inactive” in each case. Moreover, the growth inhibition call in test [3] is “inactive”.

In the case of `C[C@@H]1CN([C@@H](C)CO)C(=O)c2cc(NS(=O)(=O)c3ccc(F)cc3)ccc2O[C@@H]1CN(C)S(=O)(=O)c1cccs1`, the cytotoxicity call in test [1] and in test [2] was “inactive” in each case. Moreover, the growth inhibition call in test [3] was “inactive”.

`C[C@@H]1CN([C@@H](C)CO)C(=O)Cc2cc(NC(=O)NC3CCCCC3)ccc2O[C@H]1CN(C)C(=O)Nc1cccc2ccccc12`: the cytotoxicity call in test [1] and in test [2] was “inactive” throughout. Also, the growth inhibition call in test [3] is “inactive”.

For `CO[C@@H]1CN(C)C(=O)c2cc(NC(=O)NC(C)C)ccc2OC[C@@H](C)N(Cc2ccc(-c3ccccn3)cc2)C[C@@H]1C`, the cytotoxicity call in test [1] and in test [2] was “inactive” each time. In addition, in test [3], the growth inhibition call is “inactive”.

Turning to `[N-]=[N+]=Nc1ccccc1[C@H]1OC(c2ccc(OCCCO)cc2)=N[C@@]1(CCS(=O)(=O)c1ccccc1)C(=O)NC[C@@H](O)CO`, the cytotoxicity call in test [1] and in test [2] was “inactive” each time. In test [3], the growth inhibition call was “inactive”.

For the compound `NC[C@@H]1O[C@H](C23CC4CC(CC(C4)C2)C3)Cc2c1ccc(O)c2O`, the cytotoxicity call in test [1] and in test [2] was “inactive” in each case. Further, the growth inhibition call in test [3] was “active”.

As to `C[C@@H]1CN([C@@H](C)CO)C(=O)c2cccc(NC(=O)c3ccc(-c4nccs4)cc3)c2O[C@@H]1CN(C)Cc1ccc2c(c1)OCO2`, the cytotoxicity call in test [1] and in test [2] was “inactive” each time. Further, the growth inhibition call in test [3] was “inactive”.

`CCCCCc1c2c(cc(O)c1C(=O)O)OC(=O)c1c(cc(OC)cc1C(=O)CCCC)O2`: the cytotoxicity call in test [1] and in test [2] was “inactive” throughout. In addition, the growth inhibition call in test [3] was “active”.

Consider `Cn1nnc(NCc2ccccc2)n1`, for which the cytotoxicity call in test [1] and in test [2] was “inactive” each time. For the same compound, the growth inhibition call in test [3] was “inactive”.
